Measurements from the supplement of paper PMC10126150.
Values marked as one replicate rest on one cluster of the flow cell; about a third of the high ones do not repeat.

Test system: ATP
Test: switch fluorescence ratio, 500 uM ATP over buffer (Cy3 cluster intensity, sum of 5 cycles each) (fold (ratio)); higher = stronger signal-on switching upon ATP binding; sequences stand for … in TCGTCGGCAGCGTCAGATGTGTATAAGAGACAGTTTTTTTTTTTTTTTTTTTTTTTTT…TC
Details: aptamer strand: ATP DNA aptamer (quencher-CACCTGGGGGAGTATTGCGGAGGAAGG + anchor), 100 nM annealed; ATP concentration: 500 uM; one replicate
Outline: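 Five buffer/ATP imaging cycles were run on Cy3-labelled switching-strand clusters on a modified Illumina MiSeq flow-cell, with NaOH stripping and re-annealing between cycles. In each cycle, clusters annealed to 100 nM quencher-labelled ATP aptamer were imaged in selection buffer, then after 15 min with 500 uM ATP at 22 °C. Per cluster, the fluorescence ratio is summed target-cycle over summed buffer-cycle Cy3 intensity, averaged per switch-domain sequence. Only clusters within 100-1000 RFU were kept.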
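Note: ATP exposure 15 min at 22 °C before imaging.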

| Sequence | switch fluorescence ratio |
| --- | --- |
| TAGGTACCGT | 1.02 |
| CTTCTGGAAT | 1.59 |
| TCGCCTAGAA | 1.02 |
| GTCATCCAGC | 1.01 |
| TATTCTTATC | 0.978 |
| TAAAGACCGT | 1.21 |
| AACGGTCGGA | 1 |
| CGCTGACCAG | 0.999 |
| AGGCGAAGTT | 1.04 |
| TATAACGGTG | 1.02 |
| AGACACGAG | 1.02 |
| TTCACTTCGA | 0.976 |
| ATGGATTCGT | 0.937 |
| AATATGTTTC | 1 |
| CAAAAGGTTT | 1.04 |
| TATTCTTTAC | 1.04 |
| GCGCGTTTAC | 1.7 |
| TTTGTGTGAT | 0.989 |
| AGCGGCAATG | 1.12 |
| GCCTTAGGAA | 1.15 |
| ATTGGGGT | 1.01 |
| AGAGTGGGCT | 1.01 |
| ATAAGTAATA | 1.03 |

| Sequence | switch fluorescence ratio |
| --- | --- |
| ATGGCGGAGC | 1.03 |
| GAGAGTTTGC | 0.957 |
| ACGGTCAATC | 1.39 |
| TGGGGCCATT | 1.18 |
| TTAGTTTGGC | 1.05 |
| AAATCTCGGC | 1.01 |
| AAGCCCGATG | 1.03 |
| ACTATCG | 1.09 |
| AATTAAATAC | 1.2 |
| CAGTCGGTGC | 0.998 |
| CACTAAGTGA | 0.982 |
| CATACACAA | 1.72 |
| TTAGAAACTG | 0.926 |
| GTAAGGGGAA | 1.02 |
| TGATCGCGGA | 0.971 |
| TAGGCCGGTT | 0.967 |
| TTTCGTA | 0.925 |
| CTGGATCCAA | 0.991 |
| AGTACACGTC | 0.993 |
| GGGCATAGAG | 1 |
| TTTGAACC | 0.98 |
| TTGGATCGAG | 0.996 |
| CCAGTATCTA | 0.985 |

| Sequence | switch fluorescence ratio |
| --- | --- |
| GGACTGGCAA | 1.44 |
| AGGCGTCATA | 0.979 |
| GACACAGTTG | 1.01 |
| GCATTGGAGA | 1.03 |
| GGGGCGGAAG | 1.06 |
| TCACTATCGG | 1.02 |
| AGTCCCACTT | 1.15 |
| CTTGTTGCCC | 1.04 |
| GTGGTACATC | 1.03 |
| TACAGAGGCT | 1.01 |
| ACGGGTTGCT | 1.01 |
| TGGGCGGGCA | 1.04 |
| GGTATCCCGT | 0.993 |
| AATTAAGTCC | 1.02 |
| ATCTTTAAAT | 1 |
| AATACTTAAC | 1.16 |
| CAGCATATCT | 1.53 |
| AAATGACCTC | 1.03 |
| ATAATGCCGT | 0.981 |
| TGAACGCCAG | 1.08 |
| AGGGTAGCCG | 0.919 |
| AAATACGTGG | 1 |
| TTATCAGAGT | 1.02 |

| Sequence | switch fluorescence ratio |
| --- | --- |
| CGAGTGGCTC | 1.03 |
| ATCACCAATC | 1.06 |
| ACGGTTGTAA | 1.05 |
| CTCACGTAGA | 1.13 |
| TACGATACTG | 1.48 |
| ATACCGAATT | 1.01 |
| CATTCAGTGG | 0.961 |
| CCATGAAACA | 1.01 |
| CATCCAATTT | 1.05 |
| CGTAGCCCTA | 1.05 |
| AGCAATGGCC | 1.94 |
| GACTACTTG | 1.04 |
| AAGGCCGTGG | 0.938 |
| CACTAAGCCA | 1.03 |
| GTGTTCCATG | 1.01 |
| TACACACATC | 1.21 |
| TTTCTCTCC | 1.1 |
| CAGGGGGGT | 1.03 |
| TTCCTGCGAC | 2.8 |
| ATTTCAGGAC | 1.02 |
| GCCATGGCAA | 1.05 |
| GGTCGGTTCG | 1.05 |
| AGTATCTGAC | 1.1 |

| Sequence | switch fluorescence ratio |
| --- | --- |
| GGTAAAGCCC | 1.11 |
| TTGAAGTGAG | 0.979 |
| GGACGTGATG | 0.929 |
| CATCCAATTA | 1.14 |
| GATCCGTCGT | 1.02 |
| TTTCGGTGCC | 0.954 |
| TTTTCCCGAT | 1.02 |
| GCCTTCTTGC | 0.981 |
| GGCCGTGTCC | 0.957 |
| AGCTGGACTC | 1.53 |
| CGGGGCGTGG | 1.07 |
| TAAAACTTGC | 1.06 |
| ACCCGAGGAT | 1.04 |
| CAGGGACGTC | 1.04 |
| TTTTCAGTAC | 1.07 |
| ACGGATTCGA | 0.982 |
| AGGGAGCGGA | 0.997 |
| GGATGATTCC | 1.05 |
| GTGTTGGCAC | 0.998 |
| AATATCAAGA | 0.949 |
| CCCTGGCAAG | 1.5 |
| GAATCCGACA | 1.13 |
| GGCATAGTGT | 0.989 |

| Sequence | switch fluorescence ratio |
| --- | --- |
| TCCGTTGGAT | 0.989 |
| TGAATGGGAA | 0.994 |
| TCAATCGCGT | 0.999 |
| GTGCGTATTG | 0.987 |
| TCCCGATGAT | 1.03 |
| CAAATATATG | 1.04 |
| TACCATGACA | 1.04 |
| CTTAATGTTG | 0.976 |
| GTAGATTCGT | 1.01 |
| AAGGTTCGTT | 1.01 |
| TAATTAGAAT | 1 |
| TAAGGCGATG | 0.989 |
| CGTCGCCGAG | 1.01 |
| GCCTCTTCGT | 1.01 |
| GGGGGTACG | 1.02 |
| TCGTGTGATC | 1.08 |
| AGCAATAAAT | 1.19 |
| GACGCTTGGA | 1.1 |
| TCTCGTCAAT | 3.24 |
| CCCTCCATGA | 1.32 |
| GATTAACCGC | 1.14 |
| CTAGAGGTTA | 0.977 |
| GAGAAAGGT | 0.95 |

| Sequence | switch fluorescence ratio |
| --- | --- |
| AAGGGGGTTC | 1.07 |
| TATGGATCGT | 1.02 |
| ATACAATATC | 1.06 |
| GAACGCGATG | 1.91 |
| TAACGTTTAG | 0.987 |
| ATCCCATACA | 1.02 |
| AACTCGCGGT | 1.01 |
| TCGATTTGTT | 1.03 |
| TAACAGGTCG | 0.979 |
| TTAAGTTGCG | 1.03 |
| AGCTTAGTAA | 0.99 |
| CCGATTCTCT | 1.09 |
| AAAGTGTGTG | 1.01 |
| GTGGTATGGC | 1.05 |
| GAATGAGCCG | 1.09 |
| TAAATTATAC | 1.1 |
| AGGTAGTTAC | 0.947 |
| CACTCCTGAT | 1.01 |
| TTCATTTGCG | 0.985 |
